Variants at the floor of the assay are shown more often than the library holds them.
B1: TPR 5TU (parent)
chain: GGAUCUUCUCGAUCUAACAAAAAAGACAAAUCUGCCACAAAGCUUGAGAGCAUCUUCGGAUGCAGAGGCGGCAGCCUUCGGUGGCGCGAUAGCGCCAACGUUCUCAACUAUGACACGCAAAACGCGUGCUCCGUUGAAUGGAGUUUAUCAUG

Variants of: B1
Assay: polymerase ribozyme fitness, log enrichment relative to wild type (log ratio); higher = more active; in vitro selection for triplet polymerase activity
Summary of the method: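 Input and output libraries were sequenced on Illumina after a single in vitro selection round, run in triplicate on PCR-built, transcribed mutant libraries of each subunit of a heterodimeric triplet polymerase ribozyme. Selection annealed libraries to a biotinylated primer, the partner subunit and triplets, incubated them frozen at −7 °C, then gel-excised extended constructs for streptavidin-bead capture and RT-PCR. Genotypes with ≥10 input reads and ≥1 read per output were kept. Fitness is the logarithm, taken in base 2, of genotype enrichment divided by wild-type enrichment, using inverse-variance-weighted replicate averages.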

Point of comparison: C69U C85U U127G, “polymerase ribozyme fitness (log ratio)” value -3.4. Against it:
- C69A U82G — higher, -1.91
- G74A C79A G84A — lower, ≤ -4.2
- A73G G126A — higher, -0.377
- G74C A91U A137G — lower, ≤ -4.2
- C72U A98U — higher, 0.351
- A73G C87G A138U — lower, ≤ -4.2
- G74A A91G A138U — lower, ≤ -4.2
- G70A G140C U148A — lower, ≤ -4.2
- G68C A89G A98G G100U — lower, ≤ -4.2
- A73U C76G G86A G140U — lower, ≤ -4.2
- G74A U127C A142G — lower, ≤ -4.2
- C72G G92U C93U C116G G140U — lower, ≤ -4.2
- G71C G117U C149U — lower, ≤ -4.2
- G70U C76G U82A C116U — lower, ≤ -4.2
- G71U C85A G92U G143C — lower, ≤ -4.2
- C72A U90G C95G C105U C123U G141U — lower, ≤ -4.2
- A73G U82A G84A G92U C105G A150C — lower, ≤ -4.2
- A73G A97C C99G — lower, ≤ -4.2
- C69U U134A U139G — lower, ≤ -4.2
- C69A A91U A98C A107G A150C — lower, ≤ -4.2
- G71A C87A C99G G141A — lower, ≤ -4.2
- A73U G81A A89G G94U A121U — lower, ≤ -4.2
- C72U C85U U90C — lower, ≤ -4.2
- C69G C99U G133U — lower, ≤ -4.2
- G68C G80U A89U C95U U104G — lower, ≤ -4.2
- A73G C85G — higher, -1.1
- C69U G71U C87U A89C U134A G140U — lower, ≤ -4.2
- A73U A98G G117U A119U G133U G136A C149G — lower, ≤ -4.2
- C69U G81U C95U G112A C114U U135G — lower, ≤ -4.2
- G70A A89C U139C U144A — lower, ≤ -4.2
- C69A A91U A107U — lower, ≤ -4.2
- A73U C108A A110C G133A — lower, ≤ -4.2
- G74C C96U C123G — lower, ≤ -4.2
- G71A G83A G94A G126A — lower, ≤ -4.2
- G71C A91U A110G G141C — lower, ≤ -4.2
- G71A G128A — lower, ≤ -4.2
- G70A C87A — lower, ≤ -4.2
- A73U A122G — higher, -0.995
- C72G G81U C85U A115U — lower, ≤ -4.2
- G70U C79A C96G — lower, ≤ -4.2
- G71U C85G U134G U139G — lower, ≤ -4.2
- G68C C131U — lower, ≤ -4.2
- G71A U90G — lower, ≤ -4.2
- A73G G83U C85G A106G C118G — lower, ≤ -4.2
- G74A A91C A115U G141A A147C U148G — lower, ≤ -4.2
- C69U C87U G92C A150G — within 0.2 log units, -3.27
- C69G A91U A107C G124A U148A — lower, ≤ -4.2
- A73U G81A G83C C118U A120U U134G — lower, ≤ -4.2
- G68U G71C C96U — lower, ≤ -4.2
- C69A C76U G84U U127A — lower, ≤ -4.2
- G71A C87A G136C — lower, ≤ -4.2
- G70C C87A G140A — lower, ≤ -4.2
- G68A G83C C118U — lower, ≤ -4.2
- C69A G83C A91C A115G U145C — lower, ≤ -4.2
- G74A A89C C95G U148A — lower, ≤ -4.2
- A73G C87A C95U U104C C105A U109G G141U — lower, ≤ -4.2
- C69G C85A C96A C131U — lower, ≤ -4.2
- C69U C75A C85G C116G — lower, ≤ -4.2
- C69U C118A U127G — lower, ≤ -4.2
- G68U C75U G83C A89G — lower, ≤ -4.2
- G74A G88C C125A — lower, ≤ -4.2
- G71C U111G — lower, ≤ -4.2
- G74A C75A G92A G133U G140U — lower, ≤ -4.2
- C69U C72U U77G A89U C118U U130G U135A — lower, ≤ -4.2
- A73G C87U A107U C114U G141A U145A — lower, ≤ -4.2
- G68U G84A C118A A122G — lower, ≤ -4.2
- A73C G141A — lower, -3.8
- C69U C87G U148G — lower, ≤ -4.2
- G68A G100U C108G — lower, ≤ -4.2
- G71U G88U G124C — lower, ≤ -4.2
- G68U G83C A98U U148A — lower, ≤ -4.2
- A73U G84U A142C G143A — lower, ≤ -4.2
- C72A A91G — lower, ≤ -4.2
- C69G C75G U101G A150C — lower, ≤ -4.2
- A73G U90G A138G — lower, ≤ -4.2
- G70U A91U C95U — lower, ≤ -4.2
- A73G G88A C95U U144C — lower, ≤ -4.2
- G70C C87G — lower, ≤ -4.2
- G70C C87A — lower, ≤ -4.2
- A73G C99A G141C — lower, ≤ -4.2
- G74C C93A U151C — lower, ≤ -4.2
- G70U C96U A110U — lower, ≤ -4.2
- G68A G83C — lower, ≤ -4.2

— the RNAGym collection of RNA variant scans (doi:10.1073/pnas.2313332121)
